# PMC4336329 (PLoS ONE, 2015)
# Out of some 310,000 compounds screened, about 14,000 (4.5%) showed an effect of 50% or more. The effect is printed as a negative number. The list shows a part of the results.
# Target: human ether-à-go-go-related gene (hERG) potassium channel (human, UniProt Q12809)
# Assay: primary screen, population patch clamp on CHO cells stably expressing hERG
# 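Further: peak tail current of the secondary pulse compared with the same well before compound.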
# human ether-à-go-go-related gene (hERG) potassium channel, sequence (Q12809 whole entry, looked up): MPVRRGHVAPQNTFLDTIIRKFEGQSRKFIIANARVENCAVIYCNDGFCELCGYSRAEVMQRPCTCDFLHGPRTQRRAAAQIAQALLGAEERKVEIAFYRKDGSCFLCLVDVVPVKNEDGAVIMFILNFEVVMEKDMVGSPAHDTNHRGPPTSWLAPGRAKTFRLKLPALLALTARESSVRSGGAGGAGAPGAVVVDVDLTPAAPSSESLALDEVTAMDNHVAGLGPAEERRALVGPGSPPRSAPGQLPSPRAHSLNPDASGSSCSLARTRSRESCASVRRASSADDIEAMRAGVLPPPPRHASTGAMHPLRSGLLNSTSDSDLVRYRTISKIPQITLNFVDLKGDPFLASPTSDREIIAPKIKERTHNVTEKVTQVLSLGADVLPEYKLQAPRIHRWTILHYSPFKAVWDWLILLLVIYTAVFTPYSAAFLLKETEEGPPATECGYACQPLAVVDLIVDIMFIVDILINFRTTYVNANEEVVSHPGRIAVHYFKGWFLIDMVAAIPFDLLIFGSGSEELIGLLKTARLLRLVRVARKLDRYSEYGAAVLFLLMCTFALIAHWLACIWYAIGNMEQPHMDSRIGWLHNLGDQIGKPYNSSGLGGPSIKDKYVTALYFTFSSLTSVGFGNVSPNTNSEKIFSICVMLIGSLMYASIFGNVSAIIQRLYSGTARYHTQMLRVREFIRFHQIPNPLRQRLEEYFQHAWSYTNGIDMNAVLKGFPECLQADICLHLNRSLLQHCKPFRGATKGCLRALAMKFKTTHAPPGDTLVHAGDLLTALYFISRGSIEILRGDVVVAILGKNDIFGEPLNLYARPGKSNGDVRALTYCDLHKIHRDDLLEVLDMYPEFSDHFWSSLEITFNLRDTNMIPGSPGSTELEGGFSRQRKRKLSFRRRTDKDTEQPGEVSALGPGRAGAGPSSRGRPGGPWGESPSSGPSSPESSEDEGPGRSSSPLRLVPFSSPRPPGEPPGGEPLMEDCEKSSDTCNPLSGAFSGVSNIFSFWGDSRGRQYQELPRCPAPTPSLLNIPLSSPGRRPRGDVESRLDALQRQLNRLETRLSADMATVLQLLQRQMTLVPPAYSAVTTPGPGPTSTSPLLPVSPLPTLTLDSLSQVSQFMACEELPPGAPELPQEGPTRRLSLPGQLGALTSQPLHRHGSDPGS
row,SMILES,"hERG current change (%, negative = inhibition) at 10uM"
1,CC1(OC(=O)C2CCCC2)C(=O)C=C2C=C(c3ccsc3)N(CC3CC3)C=C2C1=O (stereo not shown),-11.8%
2,COCCN(Cc1ccccc1)C(=S)Nc1ccc(Cl)cc1,11.1%
3,C/C(=N\NC(=O)c1nn(C)cc1Br)c1ccc(NC(=O)c2ccncc2)cc1,6.84%
4,c1nc(N2CCC3(CC2)OCCO3)c2c3c(sc2n1)CCCC3,-39%
5,COc1ccc(CCN/C=C2/CC(=O)NC2=O)cc1OC,8.75%
6,COc1ccccc1C1/C(=C(/O)c2ccccc2)C(=O)C(=O)N1CCO (stereo not shown),1.4%
7,NS(=O)(=O)c1cccc(NS(=O)(=O)c2ccc(/C=C/C(=O)O)cc2)c1,23.3%
8,COc1ccc(S(=O)(=O)N(C)CC(=O)N2CCN(c3ccccc3)CC2)cc1,-30.5%
9,O=C(CCNC(=O)c1ccccc1)OCN1C(=O)c2ccccc2C1=O,-5.38%
10,CCOc1ccc(C2/C(=C(\O)c3ccc4c(c3)OCCO4)C(=O)C(=O)N2CCN2CCOCC2)cc1OC (stereo not shown),6.94%
11,Clc1ccccc1-c1nnc(CNC2CC2)o1,15.6%
12,COc1ccc(-c2csc(NC(CO)c3nc4ccccc4n3CCCO)n2)cc1 (stereo not shown),-19.3%
13,COc1ccc(C(CNC(=O)c2cccc(S(=O)(=O)Nc3ccc(C)cc3)c2)N2CCOCC2)cc1 (stereo not shown),-20.2%
14,CCOc1cc(/C=C2/C(=O)ON=C2C)ccc1OCc1ccccc1,15.1%
15,c1ccc2c(c1)ncn2CCn1cnc2ccccc21,-39.2%
16,CN(Cc1cccc2ccccc12)C(=O)c1cc(COc2c(F)cccc2F)on1,24.6%
17,CCNC(=O)N1CCCC(C(=O)c2ccc(C(F)(F)F)cc2)C1 (stereo not shown),-23.4%
18,CCOC(=O)c1oc2cccc(OC(C)=O)c2c1C,-3.5%
19,COc1ccccc1CNC(=O)CN1c2cccc3cccc(c23)S1(=O)=O,-3.2%
20,O=C(COC(=O)c1cccs1)NC12CC3CC(CC(C3)C1)C2,-3.02%

row,SMILES,"hERG current change (%, negative = inhibition) at 10uM"
1,Cc1ccc(OP(=O)(NCc2ccccc2)Oc2ccc(C)cc2)cc1,3.24%
2,COc1ccc(-c2nc(NC(=O)Cn3cnnn3)sc2C)cc1,18.3%
3,COCCCN1CN(Cc2ccco2)CNC1=S,11.3%
4,Cc1ncc([N+](=O)[O-])n1CC(=O)Nc1ccc(F)c(F)c1,15%
5,COC(=O)C1=C(NC(=O)c2ccc(C)cc2)CCS1,-9.37%
6,CC(C)c1ccc(N2C(=O)CC(=O)NC2=O)cc1,12.4%
7,O=C(Nc1cccnc1)c1ccccc1O,-3.29%
8,CN(CC(CC(=O)O)c1ccccc1)S(=O)(=O)c1ccc(Br)cc1 (stereo not shown),6.91%
9,Cc1cc(C(=O)COC(=O)Cn2c(C(F)(F)F)nc3ccccc32)c(C)n1Cc1ccco1,11.8%
10,N#Cc1ccccc1NC(=O)CSc1ccc([N+](=O)[O-])cn1,13.1%
11,CC(C(=O)OCC(=O)N(C)C1(C#N)CCCCC1)N1C(=O)c2ccccc2C1=O (stereo not shown),-21.1%
12,CCn1c(C)c(C2=CCN(S(=O)(=O)c3ccc(C)cc3)CC2)c2ccccc21,0.962%
13,O=S(=O)(Nc1ncccn1)c1ccc(Cl)cc1,18.1%
14,CC1=CC(C)(C)Nc2ccc(OC(=O)c3cccnc3)cc21,-5.62%
15,COc1ccc2cc(C(=O)Nc3ccc(O)cc3)sc(=O)c2c1OC,6.47%
16,O=C(COc1ncnc2c(Cl)cc(Cl)cc12)NC1CCCCCC1,9.78%
17,COc1ccc(CCNS(=O)(=O)c2c(C)nc3scc(C)n3c2=O)cc1OC,9.68%
18,COc1ccc(C(C)=O)cc1CSC(=N)N.Cl,9.4%
19,COc1ccc(CC(=O)Nc2c(C(N)=O)oc3ccccc23)cc1,20.9%
20,CCC1(c2ccccc2)NC(=O)N(CC(=O)Nc2cc(S(=O)(=O)N3CCCCC3)ccc2N(C)C)C1=O (stereo not shown),-18.3%

row,SMILES,"hERG current change (%, negative = inhibition) at 10uM"
1,Cc1ccnc(NC(=O)COc2ccc3c(c2)CCC3)c1,-12.3%
2,C=CCSc1nc(N)c(C(=O)Nc2ccccc2)cc1C#N,-3.16%
3,O=C(NCc1ccccn1)NC12CC3CC(CC(C3)C1)C2,0.211%
4,COc1ccc(/C(C)=N/N2CCCCC2)c(O)c1,13.5%
5,CC1=CC=CN2C1=NC(=O)CC2(C)C(=O)N(CC(=O)NC1CCCC1)c1cc(C)cc(C)c1 (stereo not shown),43.3%
6,Nc1ccc(N2C(=O)c3ccccc3C2=O)c(Cl)c1,8.05%
7,O=C(NNC(=O)C1CCCN(c2ncccn2)C1)c1ccncc1 (stereo not shown),5.96%
8,COC(=O)C(O)(CC(=O)Nc1cccc(SC)c1)C(F)(F)F (stereo not shown),8.38%
9,Cc1c2n(c3ccccc13)CC/C2=N\O,-14.9%
10,COc1cccc(N2CCN(C(=O)c3ccc(Cl)c(NC4=NC5CS(=O)(=O)CC5S4)c3)CC2)c1 (stereo not shown),22.8%
11,Nc1cccc(-c2nc3cc(S(=O)(=O)c4ccc5oc(-c6cccc(N)c6)nc5c4)ccc3o2)c1,-1.55%
12,O=C(CCn1c(=O)sc2ccccc21)NCc1cccs1,1.8%
13,CNC(=O)Cc1csc2ccc(C)cc12,4.2%
14,CCc1ccc(CCC(=O)Nc2ccc(C)c(C)c2)o1,-20.8%
15,Oc1ccc(N=Nc2nccs2)c(O)c1,30.1%
16,O=C(CCCC(=O)OCC(Cl)=C(Cl)Cl)Nc1cccc(F)c1,-9.54%
17,Cc1c(C(C)(C)C)s/c(=N/S(=O)(=O)c2ccccc2)n1C,1.84%
18,CC1(C)CC2C1CCC1(O)CC2(C)CCC1N(O)c1ccc(C(=O)NCCO)cn1 (stereo not shown),12.5%
